Sequences and labels used below:
B1: tRNA (parent)
chain: CUCUCGGUAGCCAAGUUGGUUUAAGGCGCAAGACUUUAAUUUAUCACUACGAAAUCUUGAGAUCGGGCGUUCGACUCGCCCCCGGGAGAUUUUUUCCUCGAGCAA

Variants at the floor of the assay are shown more often than the library holds them.

In the data set the parent is B1. Put plainly: nonsense suppression (GFP-seq) (ratio to wild type); higher = more function; SUP4oc tRNA, yeast GFP reporter sort-seq. The procedure, abridged: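 Each variant's nonsense suppression (GFPSEQ) is a cell-share-weighted bin median GFP/RFP relative to the unmutated parent tRNA. Yeast with genome-integrated tRNA variants from a ~3% random-mutation library, a galactose-driven GFP ochre reporter and RFP were grown in raffinose/galactose medium with 80 mg/L adenine, then sorted into GFP/RFP bins for Illumina sequencing. Variants needed ≥100 reads and ≥30 cells.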
CUCUAGGUAGCCAAGUUGGUUUAAGUCGGAAGAGUUUAAUUUAUCACUACGAAAUCUUGAGAUCGGGCGUUCGACUCGCCACCGGGAGAUUUUUUCCUCGAGCAA: the nonsense suppression is no more than 0.026.
As to CUCUCCGUAGCCAAGUUGGUUUAUGGCGCAAGACUUUAAUUUAUCACUACGAAAUCUUGAGAUCGGGCGUUCGACUCGCCCCCGGGAGAUUUUUUCCUCGAGCAA, the nonsense suppression is no more than 0.026.
On to CUCUCGGUAGGCAAGUUGGUUUAAGGCGUAAGACUUUAAUUUAUCACUACGAAAUCUUGAGAUCGGGCGUUCGACUCGCCCCCGGGAGAUUUUUUCCUCGAGCAA, for which the nonsense suppression was no more than 0.026.
CUCUCGGUAGCACAGUUGGUUUAAGGCGCAAGACUUUAAUUUAUCACUACGAAAUCGUGAGAUCGAGCGUUCGACUCGCCCCCGGGAGAUUUUUUCCUCGAGCAA: the nonsense suppression was no more than 0.026.
Turning to CUCUCGGUAGCCAAGUUGGUUUAAGGCGCAAGACUUUAAUUUAUCACUACGAAAUCUUGACAUCGGGCGUUCGACUCGCUCCCGGGGGAUUUUUUCCUCGAGCAA, the nonsense suppression was no more than 0.026.
For the variant CGCUCGGUAGCCAAGAUGGUUUAAGGCGCAAGACUUUAAUUUAUCACUACGAAAUCUUGAGAUCGGGCGUUCGACUCGCCACCGGGAGAUUUUUUCCUCGAGCAA, the nonsense suppression was no more than 0.026.
To CUCUCGGUAGCCAAGUUGGUUACAGGCGCAAGACUUUAAUUUAUCACUACGAAAUCUUGAGAUCGGGCGUUCGACUCGCCCCCGGGAGAUUUUUUCCUCGAGCAA belongs 0.153; to CUGUCGGUAGCCAAGUUGGUUUAAGGCGCAAGACUUUAAUUUAUCACUACGAAAUCUUGAGAUCGGGCGGUCGACUCGCCCCCGGGAGAUUUUUUCCUCGAGCAA, no more than 0.026; to CACUCGGUAGCCAAGUUGGUUUAAGGCGCAAGACUUUAAUUUAUCACUACGAAAUCUUGAGAUCGGGUGCUCGACUCGCCCCCGGGAGAUUUUUUCCUCGAGCAA, no more than 0.026.
In the case of CUCUCGGUAGCCAAGUUGCUUUAAGGCGCAAGACUUUAAUUUAUCACUACGAAAUCUUGAGUUCGGGCGUUCGACUCGCCCCCGGGAGAUUUUUUCCUCGAGCAA, the nonsense suppression was no more than 0.026.
Regarding CUCUCGGUAGCCAAGUUGGUUUAAGGCGCAAGCCUUUAAUUUAUCACUACGAAAUCUUGAGACCGGGCGUUCGACUCGCCCCCGGGAGAUUUUUUCCUCGAGCAA, the nonsense suppression is no more than 0.026.
On to CUCUUGGUAGCCAAGUUGGUUUAAGGCGCAAGACUUUAAUUUAUCACUACGAAAUAUUGAGAUCGGGCGUUCGACUCGCGCCCAGGAGAUUUUUUCCUCGAGCAA, for which the nonsense suppression is no more than 0.026.
On to CUCUCGGUAGCGAAGUUGGUUUAAGGCGCAAGACUUUAAUUUAUCACUACGAAGUCGUGUGAUCGGGCGUUCGACUUGCCCCCGGGAGAUUUUUUCCUCGAGCAA, for which the nonsense suppression was no more than 0.026.
In the case of CUCUCGGUAGCCAAGUUGGUUUAAGGCACAAGGCUUUAAUUUAUCACUACGAAAUCUUGAGACCGGGCGUUCGACUCGCCCCCGGGAGAUUUUUUCCUCGAGCAA, the nonsense suppression was no more than 0.026.
To CUCUCGGUAGCCUAAUUGGUUUAAGGCGCAAGACUUUAAUUUAUCACUACGAAAUCUUGAGAUCGGGCGUUCUACUCGCCCCCGGGAGAUUUUUUCCUCGAGCAA belongs no more than 0.026; to CUCUCGGUAGCCAAGUUGGCUUAAGGCGCAAGACUUUAAUUUAUCACUACGAAUUCCUGAGAUCGGGCGUUCGACUCGCCCCCGGGAGAUUUUUUCCUCGAGCAA, no more than 0.026; to CUCUCGGUAGCCAAGUUGCUUUAAGGCGCAAGACUUUAAUUUAUCACUACGAAAUUCUGAGAUCGGGCGUUCGACUCGCCCCCGGGAGAUUUUUUCCUCGAGCAA, no more than 0.026.
In the case of CUAUCGGCAGCCAAGUUGGUUGAAGGCGCAAGACUUUAAUUUAUCACUACGAAAUCUUGAGAUCGGGCGUUCGGCUCGCCCCCGGGAGAUUUUUUCCUCGAGCAA, the nonsense suppression is no more than 0.026.
Next, CUCUCGGGAGCCAAGUUGGUUUAAGGCGCAAGACUUUAAUUUAUCACUACGAAAUCUUGAGAUCGGGCGUUCGACUCGUCCCCGAGAGAUUUUUUCCUCGAGCAA: no more than 0.026; CCCUCGGUAGCCAAGUUGGUUUAAGGCGCAAGACUUUAAUUUAUCACUACGAAACCUUGAGAUCGGGCGUUCGACUAGCCCCCGGGAGAUUUUUUCCUCGAGCAA: no more than 0.026.
Next, CUCUCGGUAGCCAGGUUGGUUUACGGCGCAAGACUUUAAUUUAUCACUACGAAAUCUUGAUAUCGGGUGUUCGACUCGCCCCCGGGGGAUUUUUUCCUCGAGCAA: no more than 0.026; CUCUCGGUAGCCAAAUUGGUUUAAGGUGCAAGACUUUAAUUUAUCACUACGAAAUCUGGAGAUCGGGCGUUCGACUCGCCCCCGGGAGAUUUUUUCCUCGAGCAA: no more than 0.026.
Turning to CUCUCGGUAGCCAAGUUGGUUUAAGGCGAAAGACUUUAAUUUAUCACUACGAAAUCUUGAGAUCGGGCGUUCGACUCGCCCCCGGGAAAUUUUUUCCUCGAGCAA, the nonsense suppression is no more than 0.026.
Consider CUCUCGGUAGCCAAGUUGGUUUAAGGCGCAAGACUUUAAUUUAUCACUACGAAAUCUUGAGAUCGGGCGGUUGACUCGCCCCCGGGAGAUUUUUUCCUCGAGCAA, for which the nonsense suppression is no more than 0.026.
On to CUCUCGGUAGCCAAGUUGGUUUAAGGCGCAAGACUUUAAUUUAUCACUACGAAAUCGUGAGAUCGGCCGUUCGACUCGCCCCCGGGAGAUUUUUUCCUCGAGCAA, for which the nonsense suppression was no more than 0.026.
As for CUCUCGGUCGCCAAGUUGGUUUAAGGCGCAAGACUUUAAUUUAUCACUACGAAAUCUUGAGAUCGGGCGUUCGACUCGCCCCCGGGAGAUUUUUUCCUCGAGCAA, the nonsense suppression came out at 1.05.
As for CUCUCGGUUGCCAAGUUGGUUUAAGGCGCAAGACUUUAAUUUAUCACUACGAAAUCUUGAGAUCGGGCGUUCGACUCGCCCCCGGGAGAUUUUUUCCUCGAGCAA, the nonsense suppression was 0.802.

For the origin of these results see the RNAGym collection of RNA variant scans (doi:10.1101/gad.245936.114).
